# Reference: article PMC4336329 (PLoS ONE, 2015)
# The whole screen tested about 310,000 compounds, of which about 14,000 (4.5%) showed an effect of 50% or more. Effects have a minus sign here. Some of the results follow.
# Biological target: human ether-à-go-go-related gene (hERG) potassium channel (human, UniProt Q12809)
# Test: primary screen, population patch clamp on CHO cells stably expressing hERG
# 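Also: peak tail current of the secondary pulse compared with the same well before compound.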
# Sequence of human ether-à-go-go-related gene (hERG) potassium channel (Q12809 whole entry, looked up): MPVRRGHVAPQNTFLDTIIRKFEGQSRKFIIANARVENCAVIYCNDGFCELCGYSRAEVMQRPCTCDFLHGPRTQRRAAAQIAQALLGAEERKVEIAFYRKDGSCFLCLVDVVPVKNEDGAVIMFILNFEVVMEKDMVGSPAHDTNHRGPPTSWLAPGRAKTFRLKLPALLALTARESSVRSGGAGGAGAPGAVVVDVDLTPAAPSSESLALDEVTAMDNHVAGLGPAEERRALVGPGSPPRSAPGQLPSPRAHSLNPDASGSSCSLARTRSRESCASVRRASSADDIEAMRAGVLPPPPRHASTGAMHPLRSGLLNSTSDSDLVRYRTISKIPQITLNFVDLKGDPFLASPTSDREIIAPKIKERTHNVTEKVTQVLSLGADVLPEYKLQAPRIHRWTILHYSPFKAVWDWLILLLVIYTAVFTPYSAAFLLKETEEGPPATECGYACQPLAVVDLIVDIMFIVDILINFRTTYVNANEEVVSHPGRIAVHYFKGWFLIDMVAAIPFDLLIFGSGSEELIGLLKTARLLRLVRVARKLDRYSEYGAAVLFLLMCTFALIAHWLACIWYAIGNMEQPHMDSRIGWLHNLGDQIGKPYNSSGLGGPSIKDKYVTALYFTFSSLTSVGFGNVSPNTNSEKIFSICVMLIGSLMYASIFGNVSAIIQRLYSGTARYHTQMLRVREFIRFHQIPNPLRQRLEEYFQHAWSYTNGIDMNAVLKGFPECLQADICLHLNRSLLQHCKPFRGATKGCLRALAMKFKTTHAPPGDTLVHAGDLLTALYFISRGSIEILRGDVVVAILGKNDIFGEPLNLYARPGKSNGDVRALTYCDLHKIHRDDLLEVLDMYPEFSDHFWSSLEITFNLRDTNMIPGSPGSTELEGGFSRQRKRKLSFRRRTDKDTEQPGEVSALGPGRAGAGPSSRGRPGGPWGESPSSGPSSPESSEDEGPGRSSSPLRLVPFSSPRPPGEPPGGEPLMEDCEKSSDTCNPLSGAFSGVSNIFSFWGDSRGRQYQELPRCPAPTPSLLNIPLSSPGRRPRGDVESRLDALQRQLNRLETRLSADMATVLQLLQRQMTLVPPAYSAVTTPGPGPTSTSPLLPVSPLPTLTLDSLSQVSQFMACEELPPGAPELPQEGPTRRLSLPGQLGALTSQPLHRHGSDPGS
row,SMILES,"hERG current change (%, negative = inhibition) at 10uM [%]"
1,CC(=O)NS(=O)(=O)c1ccc(NC(=O)c2cccc(S(=O)(=O)N3CCc4ccccc43)c2)cc1,14.1
2,O=C(CCCc1ccccc1)Nc1cccnc1Cl,12.7
3,CCOC(=O)N1CCC(NC(=O)c2cn(-c3ccc(OC)cc3)c(=O)c3ccccc23)CC1,-6.75
4,O=C(Nc1cccc2ncccc12)c1ccccc1Cl,18.6
5,COCCn1c(N)c(N(Cc2ccccc2)C(=O)COc2ccc(F)cc2Cl)c(=O)[nH]c1=O,20.8
6,COc1ccc(/C=C2\SC(=S)N(CCC(=O)NCCCN3CCOCC3)C2=O)cc1.Cl,-0.616
7,CC1=C(C(=O)OCC2CCCO2)C(c2ccc(C)o2)C2=C(CC(c3ccc(F)cc3)CC2=O)N1 (centres unmarked),-29
8,CCC(=O)Nc1ccc(/C(C)=N\NS(=O)(=O)c2ccc(C)cc2)cc1,3.74
9,O=C(CN1C(=O)C2C3CC(C(Br)C3Br)C2C1=O)Nc1ccc(C(=O)O)cc1 (centres unmarked),13.3
10,CC(C)CC1Nc2ccc(C(=O)NCCCN3CCOCC3)cc2NC1=O (centres unmarked),20.3
11,COc1cccc(N(CC(=O)NCCSc2ccccn2)S(C)(=O)=O)c1,7.11
12,COc1ccc2nc(CNC(=O)C3CCC(=O)N(CCc4ccccc4)C3)[nH]c2c1 (centres unmarked),12.3
13,O=c1c2ccccc2[nH]c(=S)n1CCCN1CCC(Cc2ccccc2)CC1,-73.6
14,CC/C(=N\NC(=O)CCC(=O)NCc1ccccc1)c1ccc(O)cc1,8
15,Cn1c(SCC(=O)c2ccc(F)cc2)nnc1-c1cnccn1,3.06
16,CCOc1cc(/C=C2/NC(=O)N(CC(=O)Nc3cccc(C)c3)C2=O)ccc1OCC(N)=O,12
17,O=C(c1cccc2ccccc12)C1CCCN(C(=O)CCc2cnccn2)C1 (centres unmarked),-5.34
18,COc1ccc(CNC(=O)COC(=O)c2cccnc2Nc2cccc(C(F)(F)F)c2)cc1,1.46
19,Cc1ccc(NC(=O)COC(=O)Cc2c(F)cccc2Cl)cc1S(=O)(=O)N1CCOCC1,-34.3
20,COc1cccc(OC)c1C(=O)NC(=S)Nc1ccc2c(c1)C(=O)N(C)C2=O,-3.61
21,CCCCNc1ccc(C(=O)OCCN(C)C)cc1.Cl,-11.6
22,CCOC(=O)C1=C(N)OC2=C(C(=O)CCC2)C1c1ccccc1OCC (centres unmarked),9.8
23,Cc1nnc(SCc2cnc(-c3ccccc3)o2)[nH]c1=O,17.2
